Data on 44 sequences can be found in the supplement of paper PMC11417369.

Some of the results follow.

This assay relates to PF3D7_0420300 AP2 domain 1 (GST-tagged). Briefly: gcPBM binding intensity (ln(normalized median fluorescence intensity)); higher = stronger DNA binding. The method in brief:
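An Agilent 4 × 180k array carrying primer-extended double-stranded 36-bp intergenic genomic probes and negative controls received GST-tagged P. falciparum DNA-binding domains expressed in E. coli, about 25 μg on average, for 1 h. The binding buffer contained 1× PBS, 1% milk, 0.2 mg/ml BSA, 0.5% salmon testes DNA and 0.03% Triton X-100. Binding intensity is the top Masliner-normalised natural-log median intensity across replicate spots of either probe orientation, read after Alexa488 anti-GST antibody staining and a 488 nm scan.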
For the sequence “CAATAAATAATAAATACATGCAAGTATGAAGATATA [TGCATGCA_site859]”, the “gcPBM binding intensity (ln)” value is 9.46.

Turning to “TGTTTGATGGTACACGTACACACCTTGCAAATATTT [CACACA_site888]”, the “gcPBM binding intensity (ln)” value is 9.57.

For “AATATAAAATAGAAAAATGAAAAAAAAAAAAAGGGT [CACACA_negctrl_site1263]”, the “gcPBM binding intensity (ln)” value stood at 9.92.

As for “TATATATATTTTAACACACACATATATATATTTATA [CACACA_site2765]”, the “gcPBM binding intensity (ln)” value turned out to be 9.66.

For the sequence “AGCAGTTTTTTTTTTTTTTTTTTTTTTATTAAAAGC [XGTACX_negctrl_site392]”, the “gcPBM binding intensity (ln)” value stood at 8.95.

Take “ATAATAAATCATCATATTACATTTATCTTTGTTGGA [CACACA_negctrl_site849]”: the “gcPBM binding intensity (ln)” value is 9.18.

For “TACTTATTTTTATAGCATTTCACGGAGGTAGTAATA [CACACA_negctrl_site468]”, the “gcPBM binding intensity (ln)” value is 9.19.

With “AACTGTAATTTTATACGTACATAAATAATATTATAT [XGTACX_site4277]”, the “gcPBM binding intensity (ln)” value worked out at 9.21.

On to “TTTGCAACATATAAAAGTACAAATAATATATTTATT [XGTACX_site890]”, for which the “gcPBM binding intensity (ln)” value stood at 9.16.

For “TTTATTATATGCACACGTACATATAATATATATATA [XGTACX_site4108]”, the “gcPBM binding intensity (ln)” value is 9.19.

For the sequence “TTATGGTATAAAAAAATACACACTTATATATATTCT [CACACA_site488]”, the “gcPBM binding intensity (ln)” value is 9.35.

On to “TTTTATTTTTTCTATACATGCATGTCCAATTTTCTT [TGCATGCA_site304]”, for which the “gcPBM binding intensity (ln)” value was 9.6.

As to “GTTTTTTTATAAAATTTTTATATAATTCTTTTATAA [CACACA_negctrl_site1605]”, the “gcPBM binding intensity (ln)” value turned out to be 9.19.

As to “AAAAAAAAAAAAAACACACATACACGCCCACCCATA [CACACA_site3391]”, the “gcPBM binding intensity (ln)” value is 10.2.

On to “TAATAATAAAAAATACGTACATATTATTTATATATG [XGTACX_site853]”, for which the “gcPBM binding intensity (ln)” value turned out to be 9.08.

Take “CATTTTATTCTATATGCATGTTAAAAAATGTGTTGA [TGCATGCA_site128]”: the “gcPBM binding intensity (ln)” value worked out at 9.12.

On to “ATATATAAGAACATATATATTGGAAATATTGAATTT [XGTACX_negctrl_site121]”, for which the “gcPBM binding intensity (ln)” value was 9.19.

For “AATAAAAATATTATATGTACATATTTTAATATATAT [XGTACX_site1259]”, the “gcPBM binding intensity (ln)” value was determined as 9.21.

On to “ATAATACCCATTATCTTACAACAAAATGCAAACAAA [CACACA_negctrl_site1037]”, for which the “gcPBM binding intensity (ln)” value amounted to 9.32.

For “AACATAATATCATATACACACAAAAATATTGAAATA [CACACA_site2160]”, the “gcPBM binding intensity (ln)” value was 9.78.

In the case of “AAAAAAAAAGAAAAACGTACGTTTATTTAATATATA [XGTACX_site4018]”, the “gcPBM binding intensity (ln)” value was determined as 9.06.

In the case of “TTATATAACTTTTCTAGTACTTGTATAAATTCCTAC [XGTACX_site3685]”, the “gcPBM binding intensity (ln)” value is 9.16.

Regarding “AAAATTAGATTATGCACACACACTTAAAAATAATAA [CACACA_site1975]”, the “gcPBM binding intensity (ln)” value was 9.77.

For the sequence “AAGAACATATTATATACATGCATAATTCGATAGATT [TGCATGCA_site882]”, the “gcPBM binding intensity (ln)” value turned out to be 9.37.

For the sequence “TTAAAATATGTAGCTACACACACATAAACAAAATAA [CACACA_site8244]”, the “gcPBM binding intensity (ln)” value was determined as 9.63.

For the sequence “TAATTATAATAATAACGTACATATATAAAATGGTGA [XGTACX_site8434]”, the “gcPBM binding intensity (ln)” value stood at 9.47.

On to “TGTAGTCTGGAGAAAAGTACACAGTATCTGGTAGCT [XGTACX_site2012]”, for which the “gcPBM binding intensity (ln)” value was found to be 9.16.

Regarding TATATATATATATAGGTGCTATAATTTATATACACA, the “gcPBM binding intensity (ln)” value stood at 9.11.

Consider “TTTTTTTTTCTGAATTTATAATTCAAAAATATATAT [CACACA_negctrl_site300]”, for which the “gcPBM binding intensity (ln)” value is 8.81.

With “AGGAAGGAAATAAATCAACACACATATATTATATAT [CACACA_site8678]”, the “gcPBM binding intensity (ln)” value came to 9.69.

On to “ATATTTATTTTAATTTTTCTATATAAACTATTATGA [CACACA_negctrl_site739]”, for which the “gcPBM binding intensity (ln)” value came out at 9.02.

On to “TTTCTAAGAAAAAAAAAAAAAAAAAAAAAGATACAA [GTGCAC_negctrl_site525]”, for which the “gcPBM binding intensity (ln)” value came out at 9.04.

With “TATATATATTATATATGTACATATTGTATATTTTTG [XGTACX_site4564]”, the “gcPBM binding intensity (ln)” value turned out to be 9.22.

Consider “ATTATAAATATCAGTGCACACATTTCTACGCAAAGT [CACACA_site4420]”, for which the “gcPBM binding intensity (ln)” value came out at 9.47.

As for “TATGTAAAATGTGTTTGTACTTATTTATTATATAAA [XGTACX_site2816]”, the “gcPBM binding intensity (ln)” value was found to be 9.24.

Turning to “AAGGAGCCTATGAACACACACATGTACAGATATTAA [CACACA_site6107]”, the “gcPBM binding intensity (ln)” value was found to be 9.66.

“CAAAATTATCAGAATCGTACATTTTTAACATATAAT [XGTACX_site7909]”: the “gcPBM binding intensity (ln)” value was found to be 9.09.

For “AAAACTATATTAATGTGTACACATCAAAATATTAAT [XGTACX_site6767]”, the “gcPBM binding intensity (ln)” value stood at 9.33.

In the case of “TTACAAAACACTTATACACACATATATATATATATA [CACACA_site2716]”, the “gcPBM binding intensity (ln)” value stood at 9.42.

As for “TAATATATTAAAAATAGTACATAAGAAAAATAAGTA [XGTACX_site7957]”, the “gcPBM binding intensity (ln)” value was 9.6.

For “TATATATATAACATTGTACACACAAAGAAATAATAT [CACACA_site8998]”, the “gcPBM binding intensity (ln)” value was 9.7.

For the sequence “ATCGGTATATTATTACATGAATAAACTTACACACAC [TGCATGCA_negctrl_site21]”, the “gcPBM binding intensity (ln)” value stood at 9.94.

On to “TTGTATTAATAATTTTTTATATTATAGTTTATAATA [GTGCAC_negctrl_site130]”, for which the “gcPBM binding intensity (ln)” value worked out at 9.08.

Take “TATATATAAAATGTATGTACATATTTATTTATATAG [XGTACX_site657]”: the “gcPBM binding intensity (ln)” value was 9.02.
